# Measurements from the supplement of paper PMC8728848.
# This is one part of the list.
# B1: Epa3to1 (Candida glabrata) (protein)
# chain: MGSSHHHHHHSSGLVPRGSHMKRELSSQNPFGYPIGCSPQDVAIIPGLTMELYSYPIVSGTPPNCYDASYVDPEYPRTGYLKRKMVGKSTGVTGNLNYKYSVEKACMVKYGNLPAGYNYNEPLTVSNFTMILYGYFKAQTTGLHTFFVNADDLLYINFGAGNAFDCCKREDSKTKLGEYVAYDIWHVDSSKNKVSLFLEKDLYYPIRMFFNNREYDSSLDLSFSVNGATDQISDFSGYLYSVPDQPDTCPAHIGYDTTCR
# Assays:
# Assay in all cases: glycan array binding signal (z-score within array); higher = stronger binding
# Details in all cases: glycan notation: IUPAC condensed, linker removed
# [1] = biological target: Gal(b1-4)GlcNAc(b1-3)Gal(b1-4)GlcNAc(b1-6)[Gal(b1-3)]GalNAc
# Outline: (§1)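 Glycan array binding is given as a within-array Z-score, which can be read as non-binding when negative. The arrays, 3228 of them, came from the Consortium for Functional Glycomics database and were retained only where the protein sequence was available. Z-scores were averaged across arrays of the same protein sequence at different concentrations or buffers and across linkers.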
# [2] = biological target: Gal(b1-4)GlcNAc(b1-3)Gal(b1-4)[Fuc(a1-3)]GlcNAc(b1-3)Gal(b1-4)[Fuc(a1-3)]GlcNAc
# Outline: as §1
# [3] = biological target: Gal(b1-4)GlcNAc(b1-3)GalNAc
# Outline: as §1
# [4] = biological target: Gal(b1-4)GlcNAc(b1-3)[Fuc(a1-3)GlcNAc(b1-6)]Gal(b1-4)Glc
# Outline: as §1
# [5] = biological target: Gal(b1-4)GlcNAc(b1-3)[Gal(b1-4)GlcNAc(b1-6)]Gal(b1-4)GlcNAc
# Outline: as §1
# [6] = biological target: Gal(b1-4)GlcNAc(b1-3)[GlcNAc(b1-6)]Gal(b1-4)GlcNAc
# Outline: as §1
# [7] = biological target: Gal(b1-4)GlcNAc(b1-6)Gal(b1-4)GlcNAc
# Outline: as §1
# [8] = biological target: Gal(b1-4)GlcNAc(b1-6)GalNAc
# Outline: as §1
# [9] = biological target: Gal(b1-4)GlcNAc(b1-6)[Gal(b1-3)]GalNAc
# Outline: as §1
# [10] = biological target: Gal(b1-4)GlcNAc(b1-6)[Gal(b1-4)GlcNAc(b1-3)]GalNAc
# Outline: as §1
# Gal(b1-4)GlcNAc6P = biological target: Gal(b1-4)GlcNAc6P
# Outline: as §1
# Gal(b1-6)Gal = biological target: Gal(b1-6)Gal
# Outline: as §1
# Gal3S(b1-3)GalNAc = biological target: Gal3S(b1-3)GalNAc
# Outline: as §1
# Gal3S(b1-3)GlcNAc = biological target: Gal3S(b1-3)GlcNAc
# Outline: as §1
# [11] = biological target: Gal3S(b1-3)[Fuc(a1-4)]GlcNAc
# Outline: as §1
# Gal3S(b1-4)Glc = biological target: Gal3S(b1-4)Glc
# Outline: as §1
# Gal3S(b1-4)Glc6S = biological target: Gal3S(b1-4)Glc6S
# Outline: as §1
# Gal3S(b1-4)GlcNAc = biological target: Gal3S(b1-4)GlcNAc
# Outline: as §1
# [12] = biological target: Gal3S(b1-4)[Fuc(a1-3)]Glc6S
# Outline: as §1
# [13] = biological target: Gal3S(b1-4)[Fuc(a1-3)]GlcNAc
# Outline: as §1
# [14] = biological target: Gal3S(b1-4)[Fuc(a1-3)]GlcNAc6S
# Outline: as §1
# Gal3S4S(b1-4)GlcNAc = biological target: Gal3S4S(b1-4)GlcNAc
# Outline: as §1
# Gal3S6S(b1-4)GlcNAc = biological target: Gal3S6S(b1-4)GlcNAc
# Outline: as §1
# Gal3S6S(b1-4)GlcNAc6S = biological target: Gal3S6S(b1-4)GlcNAc6S
# Outline: as §1
# Gal4S(b1-4)GlcNAc = biological target: Gal4S(b1-4)GlcNAc
# Outline: as §1
# Gal4S6S(b1-4)GlcNAc = biological target: Gal4S6S(b1-4)GlcNAc
# Outline: as §1
# Gal6P(b1-4)GlcNAc = biological target: Gal6P(b1-4)GlcNAc
# Outline: as §1
# Gal6S(b1-3)GlcNAc = biological target: Gal6S(b1-3)GlcNAc
# Outline: as §1
# Gal6S(b1-3)GlcNAc6S = biological target: Gal6S(b1-3)GlcNAc6S
# Outline: as §1
# Gal6S(b1-4)Glc = biological target: Gal6S(b1-4)Glc
# Outline: as §1
# Gal6S(b1-4)Glc6S = biological target: Gal6S(b1-4)Glc6S
# Outline: as §1
# Gal6S(b1-4)GlcNAc = biological target: Gal6S(b1-4)GlcNAc
# Outline: as §1
# Gal6S(b1-4)GlcNAc6S = biological target: Gal6S(b1-4)GlcNAc6S
# Outline: as §1
# GalNAc(a1-3)Gal = biological target: GalNAc(a1-3)Gal
# Outline: as §1
# GalNAc(a1-3)GalNAc = biological target: GalNAc(a1-3)GalNAc
# Outline: as §1
# [15] = biological target: GalNAc(a1-3)GalNAc(b1-3)Gal(a1-4)Gal(b1-4)Glc
# Outline: as §1
# [16] = biological target: GalNAc(a1-3)GalNAc(b1-3)Gal(a1-4)Gal(b1-4)GlcNAc
# Outline: as §1
binder,measurement,setting,value
B1,glycan array binding signal (z-score),[1],-0.038
same,glycan array binding signal (z-score),[2],0.092
same,glycan array binding signal (z-score),[3],-0.338
same,glycan array binding signal (z-score),[4],2.39
same,glycan array binding signal (z-score),[5],0.35
same,glycan array binding signal (z-score),[6],-1.44
same,glycan array binding signal (z-score),[7],0.054
same,glycan array binding signal (z-score),[8],-0.12
same,glycan array binding signal (z-score),[9],0.582
same,glycan array binding signal (z-score),[10],-0.177
same,glycan array binding signal (z-score),Gal(b1-4)GlcNAc6P,-0.619
same,glycan array binding signal (z-score),Gal(b1-6)Gal,0.923
same,glycan array binding signal (z-score),Gal3S(b1-3)GalNAc,-0.295
same,glycan array binding signal (z-score),Gal3S(b1-3)GlcNAc,-0.366
same,glycan array binding signal (z-score),[11],-0.752
same,glycan array binding signal (z-score),Gal3S(b1-4)Glc,-0.017
same,glycan array binding signal (z-score),Gal3S(b1-4)Glc6S,-0.103
same,glycan array binding signal (z-score),Gal3S(b1-4)GlcNAc,-0.412
same,glycan array binding signal (z-score),[12],0.085
same,glycan array binding signal (z-score),[13],-0.289
same,glycan array binding signal (z-score),[14],0.665
same,glycan array binding signal (z-score),Gal3S4S(b1-4)GlcNAc,-0.112
same,glycan array binding signal (z-score),Gal3S6S(b1-4)GlcNAc,0.487
same,glycan array binding signal (z-score),Gal3S6S(b1-4)GlcNAc6S,0.34
same,glycan array binding signal (z-score),Gal4S(b1-4)GlcNAc,-0.388
same,glycan array binding signal (z-score),Gal4S6S(b1-4)GlcNAc,-0.514
same,glycan array binding signal (z-score),Gal6P(b1-4)GlcNAc,-0.465
same,glycan array binding signal (z-score),Gal6S(b1-3)GlcNAc,1.63
same,glycan array binding signal (z-score),Gal6S(b1-3)GlcNAc6S,4.12
same,glycan array binding signal (z-score),Gal6S(b1-4)Glc,0.932
same,glycan array binding signal (z-score),Gal6S(b1-4)Glc6S,6.81
same,glycan array binding signal (z-score),Gal6S(b1-4)GlcNAc,2
same,glycan array binding signal (z-score),Gal6S(b1-4)GlcNAc6S,9.56
same,glycan array binding signal (z-score),GalNAc(a1-3)Gal,-0.585
same,glycan array binding signal (z-score),GalNAc(a1-3)GalNAc,-0.305
same,glycan array binding signal (z-score),[15],-0.469
same,glycan array binding signal (z-score),[16],0.025
